Test results: the supplement of paper PMC3334620
Whole data set: some 33,000 sequences, median “E-score (-0.5 to 0.5)” near -0.016, cut for the highest 2% near 0.31. This is one part of the list.

The sequences below were run against Cst6 (UniProt P40535) (assay: PBM E-score (8-mer binding enrichment) (E-score (-0.5 to 0.5)); higher = stronger / more preferred TF binding; most listed sequences are background and not binding sites). Settings: protein concentration: 200 nM; construct: GST-DNA-binding domain.
Method: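 Universal 'all 10-mer' protein binding microarrays (Agilent AMADID 015681) probed with GST-tagged S. cerevisiae TFs (full-length or DBD) made by in vitro transcription/translation (PURExpress), about 100-200 nM. Bound TF was detected with fluorescent anti-GST. Each ungapped 8-mer (which stands for itself and its reverse complement) is scored by the PBM enrichment score (E-score), a modified Wilcoxon-Mann-Whitney statistic from -0.5 to +0.5, computed with the Universal PBM Analysis Suite. Scale: above 0.35 generally sequence-specific binding.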

Sequence	PBM E-score
GTCAACAA	0.165
AGCCAGCC	-0.228
ACTGTCTG	-0.132
AAATAGTA	0.109
CCAAAACC	0.0289
CAGATCCA	-0.033
CAGGTGAA	0.0651
CCAGCGAA	-0.191
CCGTACTC	-0.113
GGTCACCA	-0.148
CTATCGAG	-0.0808
AAGCTAAT	0.199
CGTGGGGC	-0.187
AGTTATCG	0.177
CTGTGTAC	-0.0331
ACCAACAT	0.149
GCCGCCTA	-0.0725
GAGGATTA	-0.125
GCCGACAC	-0.214
GAACTTGC	-0.125
CTTCGATA	0.178
ACCCGGAG	-0.0777
GCAGCACA	-0.0182
GGCAGTAA	-0.092
CATAAGAC	-0.0141

Sequence	PBM E-score
ATGGGTAG	-0.196
TGACCGAA	0.192
ACTGTAAA	0.189
AAACCAAA	0.0972
AATGCTGT	0.0487
AGGCTAAT	-0.0136
CACGCTTA	0.0938
CATGTACC	-0.162
GCCTGCCA	-0.126
AGTGTGCC	-0.088
CGGGGGTA	-0.199
CCCGAAAA	0.0582
CTTCTGAA	0.0067
ACATGGCG	-0.00129
AAGTTAAA	0.155
ATAGGTAG	-0.0626
CCGCGACG	-0.0707
GCTTGCAA	0.134
TAATCTCA	0.143
ACGGGCTA	-0.174
ACGATAAG	-0.0893
AATTCTAC	0.119
AAAAAGAG	-0.0291
CGGGACGA	-0.06
ACTTAAGC	-0.0959

Sequence	PBM E-score
CCAGGGCC	-0.39
GGAATGGA	-0.17
AGACCGAG	-0.274
GCGAATAA	0.0488
AAGTCCAG	-0.207
TCATTTCA	0.206
CAAATGTC	-0.0707
CTGAGAAC	0.0777
ATTGGCGC	0.0493
CTGGGAAG	-0.148
AAAGGGCC	-0.243
CACTCGAC	-0.0355
GGGGTATA	-0.173
CGGCATTC	0.191
GGACAAAA	0.106
ATGCACCC	-0.0971
AGCCCACA	-0.297
ACATGGAC	-0.218
ACAGATAT	-0.00952
AAACTAAG	0.216
ACGTTTCG	0.127
CATCAAAA	0.236
GAATAGGA	-0.059
ATCATCAT	0.355
GTTCGCCA	-0.0637

Sequence	PBM E-score
GCCCGCAA	-0.165
AAAGGACT	-0.0673
ACACGCCA	0.0199
ACTCCCGC	-0.0297
ATGTAAAC	0.269
CGGAGCAA	-0.0949
CTCTTACA	-0.0491
CGGATCTA	-0.0503
TAGAGCGA	-0.0948
AGAGTTTG	0.0165
TACGCCTA	0.0565
GGGTGTCA	0.0351
CCCCGACC	-0.251
CGGCAACA	0.235
AATAATGC	0.188
CGTCACCA	0.484
AAACCTGC	-0.0935
TACGAAAA	0.233
ACTAAAAC	0.168
AGCTGTCC	-0.16
AACCTCAT	0.201
GCAACAGA	0.0229
ATCCCGCC	-0.197
ACCACAGG	-0.258
GGCTATAA	-0.0437

Sequence	PBM E-score
AGATAGAT	-0.146
ATCTCACG	0.0583
ATCCTTAG	-0.114
ACCCGGAT	-0.33
ACACGGCG	0.394
CGGACCAG	-0.126
CAAAGCGC	-0.0444
ATGAATGG	0.155
CGCAATTC	0.0895
ACGCGTAA	0.129
AGGCTCAA	0.068
CGGCCACA	-0.0975
GCATGCTA	-0.172
ACGACCCA	-0.0849
ATGTATAC	0.202
CATTGATC	0.131
GAACTTTA	-0.0635
CGGGCCTA	-0.335
GACGAGCC	-0.0886
CAAAAGGC	0.0614
TTAAACAA	0.0801
CATCCGGG	-0.148
CATTTTCC	0.109
GGCACGCC	-0.184
GTATACGA	-0.0654

Sequence	PBM E-score
AATGAACA	0.0757
CTCATGGC	-0.0491
TAGCTATA	0.0573
GCCCTAAC	-0.0495
AAGGACTG	-0.289
GTTCCCGA	-0.229
CTGATGCC	0.113
CTTTCTCC	-0.227
CTAATCAC	0.185
ACTACATA	0.148
AACCGCAA	0.107
GTCTCTAA	-0.117
CCAAAGCC	-0.0189
ACACAGTC	-0.198
CCGTCTAG	-0.0667
ATTGGACC	-0.258
CAGCACCC	-0.185
GCTGGCAC	-0.172
ATTTGTCC	0.143
ATCAAGAG	0.036
CTCACCAA	0.102
ACGTGCGA	0.0486
ATGGAATC	0.226
GAGCCGCC	0.0784
CTGTCCCA	-0.219

Sequence	PBM E-score
CTCGTCAA	0.0507
AGTTATAC	0.118
ACCGAGAC	-0.167
ACTAAGAC	0.0781
GTTCGCGA	0.0158
GAGAGCAA	0.0262
AGCTTTAA	0.127
GAATCGTA	-0.0222
AGATTACA	0.251
GCTAAACC	-0.147
CCTCAGCC	-0.137
GGTCAACC	-0.0743
CAACCGTG	-0.0377
CCCACATC	-0.177
ACGAGTAC	-0.00835
AGAGGAGG	-0.341
ATACGCCA	0.0689
CACGCCCA	-0.21
AAGGAATA	0.0503
CGGCGGGA	0.0517
CCAAAGAG	-0.0609
TCGTATAA	0.145
AAATAACC	0.0821
AATTTTGG	0.163
GAGGTGAA	-0.0049

Sequence	PBM E-score
CGTCGAAA	0.211
GCTTCAAC	-0.0993
GGCCGAAC	-0.258
CCCTCCGG	-0.443
GCATGTCA	0.287
CGCCAGTA	-0.0657
GATCGTAC	-0.335
AAGGTCCG	-0.257
GATTCGCC	0.0182
CAGTTTCC	-0.165
TGGCCAAA	0.0412
ACCACCTC	-0.109
CCCTACAA	0.00415
GGAGGGTA	-0.097
AGTCGTCA	0.268
GGCAAAAA	0.23
AAAACGCG	0.205
ACATCTCT	0.0423
AACATTTG	-0.0279
CTAGCTTC	-0.183
GCCTGACA	-0.104
CTATCTAC	-0.0129
TCTGTGCA	0.105
TACCAACA	0.113
TGGAGAAA	-0.00088

Sequence	PBM E-score
CCAATCTA	-0.011
AATCCCGC	-0.0309
AGTAAGTC	-0.235
CTGTAAAC	0.0525
TAGAGGGA	-0.0897
CGTATACC	-0.2
CTTCCCTC	-0.293
ACCTCCCT	-0.312
ACGCCACA	0.178
CGGCATCC	0.199
AAGCAGGT	0.0005
ACCGGAGC	-0.183
CGAATACG	0.242
CAACCTCG	0.0645
ATGGGAAG	-0.153
AACTTGTG	0.0771
AGAATCTA	0.0654
CGTCCAAA	0.197
AAACGATA	0.177
ATTTTAGG	0.212
ATTAATTG	0.253
ACGTTCCC	-0.267
CCAATAGC	-0.261
CTGGACAG	-0.281
CACACCTC	-0.12

Sequence	PBM E-score
ACAGCATC	0.0152
AATGAGGA	-0.196
CTTGCAAG	0.0976
ATAGCGTA	0.18
ATATGTTA	0.128
TACCCTGA	-0.0923
CTGACGAC	0.216
AGACGCGA	-0.0142
CTTGCGTA	0.216
ACATCCCG	-0.0915
ACACGCCG	0.166
GTGCCCGA	-0.168
AAGTACTG	-0.0496
AAACACAA	0.0849
AGCAAGAC	0.064
CGGAGGAC	-0.313
AACGGGTA	0.084
AAAAGTAG	0.185
CACCGACA	0.131
AGAGTGAG	0.076
ACTTGTCA	0.0443
ATGTGTAG	0.0753
CTCGTGTA	0.0233
GCGATCGC	0.039
GGAGGTAA	-0.0533

Sequence	PBM E-score
AGAGCTCA	-0.192
ACCTCATA	0.247
AGTGCAAT	-0.0018
CCTCGCGC	0.103
ATACCTGA	0.208
CTCATAAA	0.06
CCTAGACA	-0.222
CGATTTGC	-0.132
ATCTAGAG	-0.0462
ATCTATGA	0.164
AGGCCCCG	-0.256
CAGGTGAC	0.258
CGGTCCTC	-0.133
CGAAACTA	0.0426
GGTCATGA	0.239
CGCGACGC	0.0713
TCAAGCGA	-0.00748
CCGGCGCA	-0.107
CAAGACAC	0.128
CGTACTCA	0.1
GGGACAGA	-0.344
GATTACAA	0.22
ATTGGTCG	0.069
CGCTGTGA	0.089
AGCCGGTA	-0.163

Sequence	PBM E-score
CCCCCCAG	-0.451
GGCTTGAC	-0.0856
ACAATGAA	0.129
ACGGAATA	0.0756
ACGCCGGA	-0.191
CCCGTCGC	-0.149
AAACACCC	-0.0869
ATTCACAG	-0.0526
ATGAGAGG	-0.17
AGCCCGTA	-0.174
ACGAAGAA	0.243
AGAGCTTG	-0.126
GTACGATA	0.106
AACGTTTA	0.0545
GCCACTCC	-0.0261
CCAACTGA	-0.00904
AAACATGT	0.24
CGTCATAA	0.476
AAATCCAC	0.0281
GTTGCACA	-0.0605
CAAAATTA	0.233
CCCCAAGG	-0.26
CTGCTTCA	-0.0807
CGAATGAA	0.0688
CTTTTGCC	0.095

Sequence	PBM E-score
GGACAGCA	-0.0265
GAGACCCC	-0.279
ATTTCCTG	0.101
ATATACTG	0.152
ATTTTTTC	0.265
AGGCAAGC	-0.139
CCAAGTAG	-0.198
CCTGGTCG	-0.266
CGAGATTC	-0.0273
CATGATAC	0.251
CGTCCCTA	0.026
CTGGCTGC	-0.323
CCCGTCGA	-0.0608
GATAAAAA	0.282
AAAGTGTC	-0.117
ACTATGGA	-0.147
AGACTTTG	-0.00622
AGGGGGGG	-0.42
ACTGCTAG	-0.254
AATTTTGA	0.279
GATCAGTA	0.197
CCAAGGAA	-0.249
CGAGAACC	-0.0737
CCCCTAGG	-0.319
GAGAGCAC	-0.133

Sequence	PBM E-score
GACAGTAC	-0.067
TATAGTCA	0.188
GTATGGTA	-0.00272
CCAGACTC	-0.221
AAGCTGAG	-0.0358
CTAAGAGA	0.0292
GACACGCA	0.134
ACTAAAAG	0.0434
GCTAGATA	0.0191
GCAGAAAC	0.159
AGATCGCG	0.122
AAGTTACG	0.241
ATTGTAAC	0.0819
CCAGGACG	-0.028
GCAGGTCC	-0.158
CCACGAAC	0.0303
ACATGACG	0.435
GTAGATAC	0.124
CACCACTA	0.0598
